# ± gives the standard deviation of the averaged measurements. The list shows a part of the results.
# Test system: PfAP2-I AP2 domain 3 (GST-tagged)
# Assay: gcPBM binding intensity (ln(normalized median fluorescence intensity)); higher = stronger DNA binding
# Summary of the method: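 Alexa488 anti-GST antibody, scanned at 488 nm, detected GST-tagged P. falciparum DNA-binding domains that had been expressed in E. coli and incubated for 1 h on an Agilent 4 × 180k array. The array carried primer-extended double-stranded 36-bp intergenic genomic probes and negative controls. Binding intensity is the highest Masliner-normalised natural-log median intensity across replicate spots of either orientation of each probe.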
row,Sequence,gcPBM binding intensity (ln)
1,TATATGTATTTGTATACACACAAATGTATATATTTA [CACACA_site1265],7.38 ± 0.35
2,ATGTATTAAAATTTATGTACTTATATATAAATATAT [XGTACX_site1025],7.76 ± 0.48
3,AATATATATACTATAACACACATACACCCAAAAAAA [CACACA_site4453],8.28 ± 0.3
4,TTATATGGATATACAGTGCATATATACATATAAGTG,9.4 ± 0.042
5,AAAAAAAAAAGAAACACACACATATATATATAGAAT [CACACA_site1777],7.74 ± 0.75
6,CATACCTTTTAATGTACACACATTTCTTTTTTGTTA [CACACA_site892],8.04 ± 0.54
7,TATAAACATAATATTTAACACACATGAAGATGTATA [CACACA_site8252],7.59 ± 0.24
8,AAAAAAAAAAAAATATATATATATATATATATATAT [GTGCAC_negctrl_site212],9.49 ± 0.43
9,AAATGTAAATTTATCCGTACATATATATATTTATAT [XGTACX_site7024],7.66 ± 0.43
10,AAAAAAAAAAATTAAAGTACAAAAATATTAAAAATA [XGTACX_site6517],7.53 ± 0.42
11,TTTTTTGTATTTTTCACACACACATAAGTAAACAAT [CACACA_site1900],8.29 ± 0.5
12,TATTATGTATGTATATGTACGTATCTTATTTTATTT [XGTACX_site5008],7.68 ± 0.36
13,TATACATACATTAGACGTACACATTTTACCTACACC [XGTACX_site3586],8.2 ± 0.14
14,AAATTATTATATATATGTACGTATAATGTATTTTGT [XGTACX_site2903],7.77 ± 0.31
15,AAATATAGAATACATGTGCACATAATATATATATAT,9.65 ± 0.16
16,TCTTTTTAAGGGATTTTTTTTTTTTTTTTAAAAAGA [CACACA_negctrl_site1274],7.38 ± 0.45
17,TTTGTATCTATATATTGTACGAATTACTTTCATTTA [XGTACX_site4785],7.71 ± 0.58
18,AATACAATTTATAACACACACACAAGAATACCTATA [CACACA_site6705],7.99 ± 0.29
19,TATATATATATATATACACACACACCCATATATATA [CACACA_site8812],9.62 ± 0.56

row,Sequence,gcPBM binding intensity (ln)
1,ACATAAATAAATTAATGTACATATATATTTGTATAT [XGTACX_site3160],7.71 ± 0.16
2,TTTTTTTTTTTTTCAAGTACATATATATATATATAA [XGTACX_site2098],7.99 ± 0.45
3,TTTTTATATGTTAAGTGTACGTTTACATTTTATACT [XGTACX_site3485],8.06 ± 0.36
4,TGTTGTTACAGATATACACACATATATATATTATAT [CACACA_site5342],7.84 ± 0.54
5,TTGGGTGCATATATTTGTACACATTATTTCTATTTT [XGTACX_site3688],11.2 ± 0.85
6,TAAATTATAACGTGCACACATATTTAAAATGAAATG [CACACA_site2820],11.3 ± 0.23
7,ATAAACATGGAAATGTATTAAAAGCAAGTATATAAA [XGTACX_negctrl_site516],7.8 ± 0.76
8,AAAAAAAATTTCTTCACACATAAATAAATAAATAAA [CACACA_site4841],7.88 ± 0.81
9,TGCATTTATATCTTCACACATATATATATATATATA [CACACA_site4516],9.29 ± 0.49
10,ATATGTATATATACATGTACATATTTTTCCTTTCTT [XGTACX_site149],7.55 ± 0.38
11,ATTAAAAATTCAATTGCACACGCACATATTTTAATA [CACACA_site8618],8.91 ± 0.092
12,ATGTAATAAAATAATTGTACAATGTAACTAATTTTT [XGTACX_site2871],7.71 ± 0.52
13,CTTCTTTTGTGATAAAGTACAAATATTTTGAAATAT [XGTACX_site1156],7.93 ± 0.22
14,TTTTCTATAAGATTTGCACACAACTTATTCTATTAA [CACACA_site3752],9.03 ± 0.2
15,ATAAATAAATAAATAAATATATATATGAAATAATGT [TGCATGCA_negctrl_site12],7.74 ± 0.54
16,AAAAAATATAAAACGAGTACATATATAATAAGCAAA [XGTACX_site1360],7.96 ± 0.32
17,ATTATAGACAACTCTTTTTCTAAACTATTTTATTTT [CACACA_negctrl_site1754],7.76 ± 0.8
18,CATAATATTTGTGAAAGTACTTATTTTACAATAGGG [XGTACX_site5004],7.89 ± 0.34
19,TTTATTCTCCACACCCGTACACATTTTTTTTGCATA [XGTACX_site5615],8.47 ± 0.42

row,Sequence,gcPBM binding intensity (ln)
1,AAAAAAAAAAAAAACACACACACACGCAGATATATA [CACACA_site6672],8.09 ± 0.69
2,TTTCTTAAAATATAAAGTACTAAAATGAAAATATAT [XGTACX_site2173],7.87 ± 0.35
3,AAATAAAGAAATATATGTACATATATATATATATAT [XGTACX_site5131],9.48 ± 0.55
4,ATATATATATACATATGTACATATATATTTATACAT [XGTACX_site2463],8.93 ± 0.13
5,TACACAGACGGACACACACACACACTAGAAAAAAAA [CACACA_site4435],8.18 ± 0.37
6,AATGCACTATTTAAAAGTACACATAAGAAAAGCATA [XGTACX_site1739],9.24 ± 0.28
7,GCTAAACAATAGTTTGCACACAATTTAAATATATAT [CACACA_site193],8.55 ± 0.3
8,AATATAATATAATGCACACATAAAAAAAAAAAAATC [CACACA_site1303],11 ± 0.64
9,TTATATACATTAAATGAACACACATAAATAAATTAC [CACACA_site8927],7.64 ± 0.49
10,AGTATAAATATATTATGTACATATATATTATACTTA [XGTACX_site2623],7.68 ± 0.28
11,ATTTTTTTTATGTATTATGCTTTTATATCCTTCATA [CACACA_negctrl_site1244],8.02 ± 0.69
12,AAAGAATTTGCATATACACACAAAAAAATAAATACA [CACACA_site4373],7.83 ± 0.53
13,ATTTCTTTTACATTTACATGCAATGCTCTATAGATA [TGCATGCA_site62],8.09 ± 0.73
14,CTTACCAAAAAACACACACACACAAAATATATAAAT [CACACA_site1870],7.96 ± 0.53
15,TTATTTTTTAGTAGTACACACTTTTTGTACCTTTTA [CACACA_site4503],8.29 ± 0.4
16,GACACCCATAAATATACACACGCACAACACAAAATA [CACACA_site8944],8.35 ± 0.32
17,CTAAAAGAACATGTGTGTACTTATGTTCTCTTTTTT [XGTACX_site5983],7.46 ± 0.54
18,AATAAAAAAAAAAAAAAAAAAAAAAAGACACTAAAA [CACACA_negctrl_site1075],7.44 ± 0.61
19,TATAATAAATGGACGGTGCGACATGACCATATGTGT [GTGCAC_site9476],8.73 ± 0.48

# Reference: the supplement of paper PMC11417369
